About 65 (0.1%) of roughly 45,000 compounds were called active. Calls come from the whole dose curve; as a rule, active = well fitted activation curve with a large enough effect; inconclusive = small, poorly fitted or top-dose-only effect; inactive = no such curve, though single readings can be large or run the other way. The list shows a part of the results.

In this test the target is Galactocerebrosidase (Homo sapiens) (UniProt P54803). In words: A Novel Cell-Based Assay to Identify Small Molecules for B -Galactocerebrosidase. Note: 0% is about no effect; nearly all actives have a fitted effect of over 65% in size. The conditions noted are these: 145M-Twi-hGALC-G270D cells (Twitcher mouse brain line with human GALC G270D), HMU-beta-Gal fluorescence, 48 h; series mostly up to 57.5 µM; activation: at the top concentration. Summed up: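 Fluorogenic HMU-b-Gal hydrolysis (0.1 mM final, pH 5.2 citrate-phosphate with 1 mg/mL sodium taurocholate; carbonate stop buffer) measures mutant GALC activity after compound treatment of live 145M-Twi Twitcher brain cells stably carrying human GALC-G270D, with wild-type GALC line alongside; activation sought.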
Chain of UniProt P54803 (P54803 whole entry, looked up): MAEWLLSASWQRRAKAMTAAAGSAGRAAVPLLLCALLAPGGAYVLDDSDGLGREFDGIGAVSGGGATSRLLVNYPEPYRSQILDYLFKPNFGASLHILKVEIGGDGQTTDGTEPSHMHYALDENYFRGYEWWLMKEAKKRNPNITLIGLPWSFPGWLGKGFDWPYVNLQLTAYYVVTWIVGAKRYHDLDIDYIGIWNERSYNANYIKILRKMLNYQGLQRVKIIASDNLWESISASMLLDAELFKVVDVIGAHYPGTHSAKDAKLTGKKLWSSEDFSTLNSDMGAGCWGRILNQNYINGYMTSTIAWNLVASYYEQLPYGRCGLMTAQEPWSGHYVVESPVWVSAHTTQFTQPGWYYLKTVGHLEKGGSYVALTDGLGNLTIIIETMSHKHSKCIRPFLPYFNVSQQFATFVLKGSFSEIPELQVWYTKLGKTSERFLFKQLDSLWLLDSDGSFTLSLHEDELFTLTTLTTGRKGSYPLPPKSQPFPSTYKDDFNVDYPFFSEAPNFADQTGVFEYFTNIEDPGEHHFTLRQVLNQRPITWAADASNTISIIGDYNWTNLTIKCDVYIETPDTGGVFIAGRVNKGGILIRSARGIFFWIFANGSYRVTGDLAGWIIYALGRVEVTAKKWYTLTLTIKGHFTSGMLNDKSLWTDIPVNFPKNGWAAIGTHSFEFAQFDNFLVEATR
`CCOc1ccc(NC(=O)c2cc(C)nc3c2c(C)nn3-c2ccc(C)cc2)cc1`: the “activation” value was inactive: -19.7%.
The same measure for `CCOc1ccccc1NC(=O)c1ccc(F)c(S(=O)(=O)N2CCN(c3ccc(F)cc3)CC2)c1`: inactive: -10.4%.
For `Cc1ccccc1CNC(=O)CSc1nnc(C)c2c(C)n(-c3ccccc3)nc12`, the “activation” value was inactive: -15.5%.
As for `COc1ccccc1CNC(=O)c1cc2c(s1)-c1ccc(Cl)cc1SC2`, the “activation” value was inactive: -13.6%.
The same measure for `CCN(CC)CCCNC(=O)CCC(=O)NNc1nc2ccccc2c2nc(C)nn12`: inactive: -10.2%; for `COc1ccccc1N1CCN(C(CNC(=O)C(=O)NCc2cccnc2)c2cccnc2)CC1` (configuration not stated): inactive: -11%.
Next, `CCOc1cccc(CC(=O)N2CCc3c([nH]c4ccc(OC)cc34)C2c2ccc(F)cc2)c1OCC` (configuration not stated): inactive: -12%; `O=C(COc1ccc(Cl)cc1)Nc1nnc(S(=O)(=O)N2CCCCCC2)s1`: inactive: -12.6%.
As for `Cc1ccc(S(=O)(=O)n2nc(C)c(S(=O)(=O)N3CCCCCC3)c2C)cc1C`, the “activation” value is inactive: -10.2%.
With `Cc1ccn2c(Nc3ccc4c(c3)OCCO4)c(-c3ccccc3O)nc2c1`, the “activation” value was inactive: -7.72%.
Next, `CCCCOc1ccc(C2C(C(=O)Nc3ccccc3OC)=C(C)Nc3nnnn32)cc1OC` (configuration not stated): inactive: -17.6%.
`CC(=O)N1CCCc2cc(S(=O)(=O)N3CCC(C(=O)Nc4ccc(C)cc4Cl)CC3)ccc21`: the “activation” value was inactive: -15%.
Take `Cc1ccc(-c2nn(-c3ccccc3)c3c2cnc2ccccc23)cc1C`: the “activation” value was inactive: -3.37%.
The same measure for `Cc1ccc(CNC(=O)c2ccc(Nc3nc4ccccc4n4nnnc34)cc2)cc1`: inactive: -15.9%; for `Cc1ccc(NC(=O)c2oc3c(c2C)-c2[nH]ncc2CC3)c(Cl)c1`: inactive: -14.1%; for `COc1cc2c(cc1OC)[C@@H]1CC(=O)[C@@H](CC(C)C)CN1CC2`: inactive: -17.3%.
The same measure for `Cc1cc(NC(=O)Nc2nnc(N3CCCCCC3)s2)ccc1Br`: inactive: -15.6%; for `Cc1cc(C)cc(NS(=O)(=O)c2ccc3[nH]cc(C(=O)NCCc4ccccc4)c(=O)c3c2)c1`: inactive: -10.5%.
The same measure for `COc1ccc(CCNC(=O)c2ccc3c(c2)N(Cc2ccccc2)CCS3)cc1OC`: inactive: -15.1%; for `Cc1ccc(C(=O)N2CCn3c4c(c5cc(C)ccc53)CCCC42)cc1` (configuration not stated): inactive: -15.9%.
Take `CCOc1ccc(NC(=O)C(=O)NCCc2csc(-c3ccc(C(F)(F)F)cc3)n2)cc1`: the “activation” value was inactive: -14.2%.
The same measure for `NNC(=O)CP(=O)(c1ccccc1)c1ccccc1`: inactive: -2.55%.
The same measure for `CC(C)c1ccc(NS(=O)(=O)c2cc(Br)cc3c2N(C(=O)C2CC2)CC3)cc1`: inactive: -6.74%; for `Cc1ccc(S(=O)(=O)N(CCc2ccccc2)CC(=O)Nc2ccccc2C)cc1`: inactive: -33.7%.
For `Cn1cnc(S(=O)(=O)N2CCCC(C(=O)NCc3ccc(F)cc3)C2)c1` (configuration not stated), the “activation” value is inactive: -7.19%.
For the molecule `COc1ccc(OC)c(-c2noc(N3CCN(c4ccc(Cl)cc4)CC3)n2)c1`, the “activation” value is inactive: -13.8%.
The same measure for `Cc1ccc(S(=O)(=O)N2CCN(Cc3cc(Br)ccc3O)CC2)cc1`: inactive: -0.206%; for `Cc1ccn2c(=O)cc(COc3ccc(NC(=O)COc4ccccc4)cc3)nc2c1`: inactive: -8.77%.
Turning to `Cn1cc(S(=O)(=O)N2CCCCCC2)cc1C(=O)N1CCN(c2cccc(C(F)(F)F)c2)CC1`, the “activation” value is inactive: -12.4%.
Next, `CCC(=O)N1CCc2cc(Br)cc(S(=O)(=O)N3CCCC(C(=O)NCc4ccc(F)cc4)C3)c21` (configuration not stated): inactive: -4.15%; `COc1ccc(-n2c(/C=C/c3cccc(C(F)(F)F)c3)nc3ccccc3c2=O)cc1Cl`: inactive: -9.42%; `CCOc1ccccc1NC(=O)C1CCN(S(=O)(=O)c2ccc3[nH]c(=O)ccc3c2)CC1`: inactive: 6.78%.
The same measure for `COc1cc(-c2nc(-c3ccc4c(c3)[nH]c(=O)n4C)no2)cc(OC)c1OC`: inactive: -14.8%.
Take `CCOc1ccc(CCNC(=O)C2CCN(Cc3nc(-c4ccc(OC)c(OC)c4)oc3C)CC2)cc1OCC`: the “activation” value is inactive: -5.35%.
Next, `CCc1ccc(NC(=O)COC(=O)CCCC2=NS(=O)(=O)c3ccccc3N2)cc1`: inactive: -1.57%.
The same measure for `O=C1CSC2(C(=O)N(Cc3ccccc3)c3ccccc32)N1c1cccc(F)c1` (configuration not stated): inactive: -32.1%; for `N#Cc1ccccc1NC(=O)C(=O)NCCc1csc(-c2ccc(C(F)(F)F)cc2)n1`: inactive: -8.53%.
Next, `O=S(=O)(c1ccc(Cl)cc1)c1nc(-c2cccc(Br)c2)oc1NCc1ccccc1`: inactive: -17.8%.
For the molecule `COc1ccc(CCn2c(=O)c3cccnc3n(CC(=O)Nc3c(C)cccc3C)c2=O)cc1OC`, the “activation” value is inactive: -25.9%.
The same measure for `CCc1cccc(C)c1NC(=O)Cn1c(=O)n(-c2ccc(C)cc2)c(=O)c2c1cnn2C`: inactive: -16.8%.
Next, `COc1ccc(OC)c(NC(=O)c2ccc3c(SCC(=O)O)c4c(nc3c2)CCCC4)c1`: inactive: -29.2%; `Cc1cccc(CCNC(=O)c2ccc3c(c2)nc2n3CCC(C)C2)c1` (configuration not stated): inactive: -20%.
Next, `Cc1ccc2nc(COc3ccccc3NC(=O)c3ccccc3C)cc(=O)n2c1`: inactive: -0.374%; `COc1ccc(-c2nnc(SCC(=O)Nc3cc(OC)ccc3OC)nc2-c2ccc(OC)cc2)cc1`: inactive: -12.8%.
Take `CCC(=O)N1c2ccccc2CC1C(=O)NCc1cccc(OC)c1OC` (configuration not stated): the “activation” value is inactive: -11.2%.
The same measure for `COc1cccc(-c2ccc(-c3noc(-c4ccccc4Br)n3)c(OC)n2)c1`: inactive: -11.2%; for `Cc1cccc(-c2noc(-c3ccc(NCc4ccco4)c([N+](=O)[O-])c3)n2)c1`: inactive: -7.54%.

The values above are taken from PubChem BioAssay AID1159614 (National Center for Advancing Translational Sciences (NCATS), 2016).
